# Measured values published in PMC6212790.
# The other results are listed elsewhere or left out. At the low end of the ranking the order means little.
# Target: T1, GST-Rok (full length) (UniProt O34857)
# T1 sequence: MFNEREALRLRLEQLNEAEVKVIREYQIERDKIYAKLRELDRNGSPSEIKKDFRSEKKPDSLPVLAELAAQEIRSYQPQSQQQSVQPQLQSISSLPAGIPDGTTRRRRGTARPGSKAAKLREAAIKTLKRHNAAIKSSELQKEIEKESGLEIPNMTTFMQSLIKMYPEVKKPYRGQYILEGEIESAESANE
# Test: protein binding microarray;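 further: rank score from −0.5 (least bound) to 0.5 (best bound)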
# Conditions: Rok is a gene silencer of Bacillus subtilis; high values mean tight binding; most listed sequences are background and not binding sites; double strand, one strand shown
row,Sequence,binding signal
1,CGACTATA,0.151 E-score
2,CGCTCGTA,0.0563 E-score
3,ACTTCTTC,-0.0926 E-score
4,AGAATGTC,-0.0645 E-score
5,AATACTTG,0.0926 E-score
6,CATCAAGC,-0.0317 E-score
7,AGAAATAG,0.286 E-score
8,ACAAAAGG,-0.131 E-score
9,GATCAGAA,0.11 E-score
10,CCGGCACG,-0.0421 E-score
11,ACAACCGT,-0.00907 E-score
12,CAGCGTGG,-0.173 E-score
13,CTCCTACA,0.0462 E-score
14,CCCGTAGC,-0.0597 E-score
15,ACGTTAAG,-0.0138 E-score
16,AACTGTTA,0.251 E-score
17,AGCCCACA,-0.257 E-score
18,CGTATACG,0.184 E-score
19,CACGGTGA,-0.0261 E-score
20,AACTGAAT,0.0203 E-score
21,AAGGACGC,-0.218 E-score
22,CGACCGTC,-0.219 E-score
23,TCTTCGCA,0.0798 E-score
24,GACTCTAC,-0.0199 E-score
25,GCCATGGA,-0.00407 E-score

row,Sequence,binding signal
1,CCCTACGA,-0.238 E-score
2,CCAATTGA,-0.16 E-score
3,AAAAGTGA,-0.0863 E-score
4,AGACCGGA,-0.0742 E-score
5,ACATTAGG,-0.00784 E-score
6,GGATCAAA,-0.145 E-score
7,GATGGAGC,-0.104 E-score
8,AGCCGCCA,-0.269 E-score
9,AATCTAGA,0.349 E-score
10,TTACGAAA,0.279 E-score
11,ATTTTCGG,0.213 E-score
12,GTAGGGAC,-0.124 E-score
13,GTAAGTAA,0.207 E-score
14,GTCTGTAA,0.146 E-score
15,ACCGCTTC,-0.0999 E-score
16,AACCTGGC,-0.0762 E-score
17,GATTGCTA,0.233 E-score
18,CAATTATG,0.175 E-score
19,CTATGTCC,-0.0473 E-score
20,AGGACCTC,-0.158 E-score
21,ATTGATAA,0.236 E-score
22,AACCGCCA,-0.244 E-score
23,AAGTCGTG,0.127 E-score
24,CTCAAGGA,-0.255 E-score
25,CACTCGAC,-0.155 E-score

row,Sequence,binding signal
1,ATAGCTTC,0.0542 E-score
2,CTTCCATC,-0.273 E-score
3,GAAGAAAC,0.056 E-score
4,GCGGAGCA,-0.168 E-score
5,GAAGGATA,0.0273 E-score
6,CCCCCCAG,-0.384 E-score
7,GGGTTGAA,-0.293 E-score
8,GCCTGACA,-0.242 E-score
9,CCTCGTCC,-0.342 E-score
10,GTAATCCA,0.00713 E-score
11,CTATCGGC,0.0463 E-score
12,GACCCTCA,-0.349 E-score
13,GAGTCAAC,-0.133 E-score
14,ACATATTG,0.148 E-score
15,GCTATACC,-0.0167 E-score
16,AGCGCCCA,-0.282 E-score
17,CTGATCAG,0.138 E-score
18,AGACGCCT,-0.229 E-score
19,CGCAACAC,-0.0368 E-score
20,AGGTTCAG,0.0108 E-score
21,ACGCTCTC,-0.384 E-score
22,ACGATACG,0.122 E-score
23,TACCGCCA,0.0353 E-score
24,CCGATATA,0.297 E-score
25,ACCATGAG,0.0279 E-score

row,Sequence,binding signal
1,AACCAGCT,-0.112 E-score
2,TGAGCAAA,0.0435 E-score
3,GGCTGCCC,-0.342 E-score
4,ATGGAGAG,-0.197 E-score
5,AGATTCCT,0.106 E-score
6,CGTACCTC,-0.098 E-score
7,ACATGGCT,0.0198 E-score
8,CGTGCAAA,-0.0205 E-score
9,GTTATGGA,0.064 E-score
10,CTGGCCGA,-0.153 E-score
11,GCCGCGGA,-0.0998 E-score
12,ATTTTTTC,-0.0958 E-score
13,CACGAATC,0.0942 E-score
14,GGCACGGA,-0.161 E-score
15,GAAGATTA,0.224 E-score
16,AATATTTC,0.182 E-score
17,ATTCCTTG,-0.0405 E-score
18,ACCGGGCC,-0.325 E-score
19,CAGCCTCC,-0.379 E-score
20,GGAAGGCC,-0.457 E-score
21,CTTAATGC,0.13 E-score
22,CGGGAAGA,-0.189 E-score
23,AAGATCGG,-0.128 E-score
24,ATACTAGC,0.321 E-score
25,GTGCGAAC,-0.149 E-score

row,Sequence,binding signal
1,CATTTGCG,-0.059 E-score
2,AAGACAGT,-0.0316 E-score
3,GAGTTACA,0.173 E-score
4,GTCTCACA,-0.154 E-score
5,GCCTCTTA,-0.27 E-score
6,ACCCCTGC,-0.316 E-score
7,TCCCAAGA,-0.247 E-score
8,CCTAGGCG,-0.33 E-score
9,CTAATGCA,0.196 E-score
10,GCGCGTCC,-0.156 E-score
11,ATGTCACG,-0.0246 E-score
12,CGTGCCTC,-0.277 E-score
13,AAGAGGGC,-0.232 E-score
14,ATCTCCAT,0.247 E-score
15,TAAAATAA,0.247 E-score
16,GCGGACAC,-0.157 E-score
17,GTTGCCTA,0.156 E-score
18,CGCCCAGC,-0.373 E-score
19,CATTTAGC,0.0858 E-score
20,TGGAGACA,-0.258 E-score
21,CAAACTCC,-0.0836 E-score
22,GCTGCACA,0.105 E-score
23,AGGTTCGA,-0.0964 E-score
24,AATGTGAA,0.22 E-score
25,AGAAGTTA,0.277 E-score

row,Sequence,binding signal
1,GATGATGC,-0.101 E-score
2,CCCAAAAG,-0.247 E-score
3,ACAACCCT,-0.042 E-score
4,ACCCGGCG,-0.317 E-score
5,AAACCGCT,-0.108 E-score
6,ATACGTAT,0.292 E-score
7,CAGATTCA,0.0471 E-score
8,CCTAACAA,0.191 E-score
9,ATTAACCA,0.0869 E-score
10,GATTCCAA,0.0401 E-score
11,AGGGTGCC,-0.261 E-score
12,TCTGCTAA,0.0588 E-score
13,ACCTTCAT,-0.127 E-score
14,AATGCGGG,-0.104 E-score
15,CGACCAGC,-0.24 E-score
16,CTGTCACC,-0.289 E-score
17,ACCTACCT,0.271 E-score
18,ACGGGCAA,-0.222 E-score
19,GCGTACCC,-0.00127 E-score
20,GGGAAATA,0.127 E-score
21,CTCAGGAC,-0.308 E-score
22,CGCCGGGA,-0.379 E-score
23,ATCGAAGC,0.0534 E-score
24,CGCAGCAA,-0.218 E-score
25,ACGGCCCC,-0.269 E-score

row,Sequence,binding signal
1,ATACGGGG,-0.0292 E-score
2,CGTACACC,0.0304 E-score
3,CCCAGATA,0.0453 E-score
4,AGTCTTCC,-0.028 E-score
5,CTAGAGGC,-0.244 E-score
6,GATATAGC,0.0453 E-score
7,GCACGTTA,0.108 E-score
8,GGCATGCC,-0.456 E-score
9,ATAACTAA,0.26 E-score
10,GGCCAGAA,0.0721 E-score
11,AGGACCAG,-0.223 E-score
12,GCAGTGCC,-0.22 E-score
13,AATATGGC,0.219 E-score
14,CATGGATC,0.0367 E-score
15,GCGATCAA,-0.0707 E-score
16,GTTCCACA,0.023 E-score
17,GCTAGTGA,0.0873 E-score
18,GTTTATAA,0.126 E-score
19,AGGGGAGG,-0.376 E-score
20,ACGTAAGG,-0.0185 E-score
21,GACCGGCA,0.0209 E-score
22,ACAGGGAA,0.0305 E-score
